Consider 8 proteins from the supplement of paper PMC11876631.

For the data set, the target named is Escherichia coli (laboratory strain). Kind of data set: barcode share on antibiotic plates over drug-free plates; higher = less susceptible. The following applies: antibiotic: gentamicin; 2× MIC (MIC 0.45 µg/mL). How it is done: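 A pool of E. coli strains, each edited to carry one amino-acid change in an essential protein, was grown for 48 h on minimal glucose agar with or without antibiotic; strain barcodes were sequenced; mean of two replicates.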

Where a chain is given by its changes, count along the chain named. Numbers in names are those of the source. ± gives the standard deviation of the averaged measurements. Laboratory Escherichia coli strains with one amino-acid change in an essential protein, pooled on minimal glucose agar with carbenicillin or gentamicin at twice the control MIC (plus kanamycin and chloramphenicol for the plasmids), 48 h. Fold change of barcode share against drug-free plates; higher = less susceptible. Active = above 20 in both replicates (the paper's putatively resistant). '<' = one read or none on drug, '>' = one read or none on a drug-free plate. Shares are relative, so most strains fall below 1 when a few take over. Listed are strains with at least 15 reads on both drug-free plates, and hits; most hits rest on fewer reference reads. Replicate rank correlation about 0.5. Edits are read from barcodes. Some results are limits rather than exact numbers.

B1: erpA V71W (protein)
chain: MSDDVALPLEFTDAAANKVKSLIADEDNPNLKLRVYITGGGCSGFQYGFTFDDQVNEGDMTIEKQGVGLVWDPMSLQYLVGGSVDYTEGLEGSRFIVTNPNAKSTCGCGSSFSI
As to B1, the “fold change of barcode share” value was > 221 [active].

B2: erpA V84A (protein)
chain: B1 chain with W71V, V84A
With B2, the “fold change of barcode share” value is > 16600 [active].

B3: fabB V174Q (protein)
chain: MKRAVITGLGIVSSIGNNQQEVLASLREGRSGITFSQELKDSGMRSHVWGNVKLDTTGLIDRKVVRFMSDASIYAFLSMEQAIADAGLSPEAYQNNPRVGLIAGSGGGSPRFQVFGADAMRGPRGLKAVGPYVVTKAMASGVSACLATPFKIHGVNYSISSACATSAHCIGNAQEQIQLGKQDIVFAGGGEELCWEMACEFDAMGALSTKYNDTPEKASRTYDAHRDGFVIAGGGGMVVVEELEHALARGAHIYAEIVGYGATSDGADMVAPSGEGAVRCMKMAMHGVDTPIDYLNSHGTSTPVGDVKELAAIREVFGDKSPAISATKAMTGHSLGAAGVQEAIYSLLMLEHGFIAPSINIEELDEQAAGLNIVTETTDRELTTVMSNSFGFGGTNATLVMRKLKD
Consider B3, for which the “fold change of barcode share” value was less than 0.0212.

B4: argA L400P (protein)
chain: MVKERKTELVEGFRHSVPYINTHRGKTFVIMLGGEAIEHENFSSIVNDIGLLHSLGIRLVVVYGARPQIDANLAAHHHEPLYHKNIRVTDAKTLELVKQAAGTLQLDITARLSMSLNNTPLQGAHINVVSGNFIIAQPLGVDDGVDYCHSGRIRRIDEDAIHRQLDSGAIVLMGPVAVSVTGESFNLTSEEIATQLAIKLKAEKMIGFCSSQGVTNDDGDIVSELFPNEAQARVEAQEEKGDYNSGTVRFLRGAVKACRSGVRRCHLISYQEDGALLQELFSRDGIGTQIVMESAEQIRRATINDIGGILELIRPLEQQGILVRRSREQLEMEIDKFTIIQRDNTTIACAALYPFPEEKIGEMACVAVHPDYRSSSRGEVLLERIAAQAKQSGLSKLFVPTTRSIHWFQERGFTPVDIDLLPESKKQLYNYQRKSKVLMADLG
For B4, the “fold change of barcode share” value is less than 0.0196.

B5: argA V399D (protein)
chain: B4 chain with V399D, P400L
In the case of B5, the “fold change of barcode share” value is 0.0359 ± 0.016.

B6: fabD V114A (protein)
chain: MTQFAFVFPGQGSQTVGMLADMAASYPIVEETFAEASAALGYDLWALTQQGPAEELNKTWQTQPALLTASVALYRVWQQQGGKAPAMMAGHSLGEYSALVCAGVIDFADAVRLAEMRGKFMQEAVPEGTGAMAAIIGLDDASIAKACEEAAEGQVVSPVNFNSPGQVVIAGHKEAVERAGAACKAAGAKRALPLPVSVPSHCALMKPAADKLAVELAKITFNAPTVPVVNNVDVKCETNGDAIRDALVRQLYNPVQWTKSVEYMAAQGVEHLYEVGPGKVLTGLTKRIVDTLTASALNEPSAMAAALEL
For the protein B6, the “fold change of barcode share” value was less than 0.0185.

B7: fbaA L335D (protein)
chain: MSKIFDFVKPGVITGDDVQKVFQVAKENNFALPAVNCVGTDSINAVLETAAKVKAPVIVQFSNGGASFIAGKGVKSDVPQGAAILGAISGAHHVHQMAEHYGVPVILHTDHCAKKLLPWIDGLLDAGEKHFAATGKPLFSSHMIDLSEESLQENIEICSKYLERMSKIGMTLEIELGCTGGEEDGVDNSHMDASALYTQPEDVDYAYTELSKISPRFTIAASFGNVHGVYKPGNVVLTPTILRDSQEYVSKKHNLPHNSLNFVFHGGSGSTAQEIKDSVSYGVVKMNIDTDTQWATWEGVLNYYKANEAYLQGQLGNPKGEDQPNKKYYDPRVWDRAGQTSMIARLEKAFQELNAIDVL
Turning to B7, the “fold change of barcode share” value is > 50.6 [active].

B8: fbaA I120Q (protein)
chain: B7 chain with I120Q, D335L
Regarding B8, the “fold change of barcode share” value is > 509 [active].
